In patent publication US20220411471A1, “CELL-PERMEABLE CYCLIC PEPTIDES AND USES THEREOF” (Unnatural Products Inc., priority 2019, published 2022):
For some assays here: Not every detail of the peptide structures is certain; ends, links or a residue may be inferred. For some assays here: At least one structure is not confirmed: it was looked up by name or label, or the drawing left a doubt. Non-standard residues stand in square brackets, D forms with d. Residues, ends and D or L forms follow the SMILES beside them. ξ: configuration not given here. Ala(4-thiazolyl) = N[C@@H](Cc1cscn1)C(=O)O; NMePhe(4-F) = CN[C@@H](Cc1ccc(F)cc1)C(=O)O; Phe(4-Cl) = N[C@@H](Cc1ccc(Cl)cc1)C(=O)O; Phe(4-F) = N[C@@H](Cc1ccc(F)cc1)C(=O)O; NMeThr(3ξ) = CN[C@H](C(=O)O)C(C)O; NMeF = CN[C@@H](Cc1ccccc1)C(=O)O; hSer = N[C@@H](CCO)C(=O)O; NMeA = CN[C@@H](C)C(=O)O; dNMeA = CN[C@H](C)C(=O)O; Nme = COCCNCC(=O)O

What was measured:
[1] = target: T1, Human MDM4 (HDM4) 1-114 (Homo sapiens, UniProt O15151); assay: Fluorescence polarization assay 2, MDM4 (Table 4); format: binding
T1 construct: Human MDM4 (HDM4) 1-114
T1 sequence (O15151 1-114): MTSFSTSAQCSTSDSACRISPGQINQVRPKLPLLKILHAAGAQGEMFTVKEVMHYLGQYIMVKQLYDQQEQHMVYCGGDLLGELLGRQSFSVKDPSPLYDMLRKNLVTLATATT
Protocol: (§1) Compounds dissolved in DMSO were pin transferred (˜100-200 nL) to the 384 well plate containing the MDM4/p53 solution. After incubation for 60 minutes, the fluorescence polarization was read on a Molecular Devices SpectraMax plate reader equipped with a Fluorescein FP cartridge. In addition to probe alone (positive control) and probe/MDM4 (negative control), a titration of linear p53(18-26) was included on every plate as an additional control. IC50 values were fit using either Prism or Collaborative Drug Discovery.

[2] = target: T2, Human MDM2 (HDM2) 1-116 (Homo sapiens, UniProt Q00987); assay: Fluorescence polarization assay 2, MDM2 (Table 4); format: binding
T2 construct: Human MDM2 (HDM2) 1-116
Protocol: as §1, with “MDM2/p53” for “MDM4/p53”, “probe/MDM2” for “probe/MDM4”

[3] = system: MOLM-13 cells; assay: Cellular fluorescence assay (resazurin, 72 hours); format: cell-based
Protocol: MOLM-13 cells were grown in suspension in T75 flasks in RPMI medium with 10% fetal bovine serum (FBS) at 37° C. with 5% CO2. 40 μL of MOLM-13 cells were plated into columns 1-22 of black, clear bottom, 384 well plates at a density of 1,500 cells per well in PRMI with 10% FBS. Columns 23 and 24 were filled with 40 μL of media as a positive control. 100 nL of compounds dissolved in DMSO were pin transferred into columns 3-22 of the 384 well plate. Columns 1 and 2 served as negative control wells. Plates were incubated for 72 hours at 37° C. with 5% CO2. After incubation, the cells were given 10 μL of 2 mM Resazurin in RPMI with 10% FBS and incubated for 3 hours. The fluorescence intensity was read on a Molecular Devices SpectraMax i3x plate reader (Excitation wavelength=535 nm, Emission wavelength=585 nm).

T2 sequence (Q00987 1-116): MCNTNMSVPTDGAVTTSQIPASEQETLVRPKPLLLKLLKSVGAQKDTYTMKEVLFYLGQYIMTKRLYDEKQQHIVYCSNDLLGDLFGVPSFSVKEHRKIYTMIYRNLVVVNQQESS

## COCC[C@@H]1NC(=O)[C@H]2CCCN2C(=O)[C@H](Cc2ccc(F)cc2)N(C)C(=O)[C@H](Cc2ccc(Cl)cc2)NC(=O)[C@H](C(C)O)N(C)C(=O)[C@H](Cc2ccc(F)cc2)NC(=O)CN(CCOC)C(=O)[C@@H](C)N(C)C(=O)[C@H](Cc2cscn2)NC(=O)[C@H](C)N(C)C1=O (some centres unmarked) [Compound 45, COCC[C@@H]1NC(=O)[C@H]2CCCN2C(=O)[C@H](Cc2ccc(F)cc2)N(C)C(=O)[C@H](Cc2ccc(Cl)cc2)NC(=O)[C@H]([C@@@H](C)O)N(C)C(=O)[C@H](Cc2ccc(F)cc2)NC(=O)CN(CCOC)C(=O)[C@@H](C)N(C)C(=O)[C@H](Cc2cscn2)NC(=O)[C@H](C)N(C)C1=O] (cyclo([Ala(4-thiazolyl)][dNMeA][Nme][Phe(4-F)][NMeThr(3ξ)][Phe(4-Cl)][NMePhe(4-F)][dP][hSer](Me)[NMeA]))
[1]
  IC50: 50 to 100 nM
[2]
  IC50: < 25 nM

## COCC[C@@H]1NC(=O)[C@H]2CCCN2C(=O)[C@H](Cc2ccccc2)N(C)C(=O)[C@H](Cc2ccc(Cl)cc2)NC(=O)[C@H]([C@@H](C)O)NC(=O)[C@H](Cc2ccc(F)cc2)NC(=O)CN(CCOC)C(=O)[C@@H](C)N(C)C(=O)[C@H](Cc2cscn2)NC(=O)[C@H](C)N(C)C1=O [Compound 39, COCC[C@@H]1NC(=O)[C@H]2CCCN2C(=O)[C@H](CC2=CC=CC=C2)N(C)C(=O)[C@H](CC2=CC=C(Cl)C=C2)NC(=O)[C@@H](NC(=O)[C@H](CC2=CC=C(F)C=C2)NC(=O)CN(CCOC)C(=O)[C@@H](C)N(C)C(=O)[C@H](CC2=CSC=N2)NC(=O)[C@H](C)N(C)C1=O)C(C)O] (cyclo([hSer](Me)[NMeA][Ala(4-thiazolyl)][dNMeA][Nme][Phe(4-F)]T[Phe(4-Cl)][NMeF][dP]))
[1]
  IC50: < 50 nM
[2]
  IC50: < 25 nM

## COCC[C@@H]1NC(=O)[C@H]2CCCN2C(=O)[C@H](Cc2ccccc2)N(C)C(=O)[C@H](Cc2ccc(Cl)cc2)NC(=O)[C@H](C)N(C)C(=O)[C@H](Cc2ccc(F)cc2)NC(=O)CN(CCOC)C(=O)[C@@H](C)N(C)C(=O)[C@H](Cc2cscn2)NC(=O)[C@H](C)N(C)C1=O [Compound 40, COCC[C@@H]1NC(=O)[C@H]2CCCN2C(=O)[C@H](CC2=CC=CC=C2)N(C)C(=O)[C@H](CC2=CC=C(Cl)C=C2)NC(=O)[C@H](C)N(C)C(=O)[C@H](CC2=CC=C(F)C=C2)NC(=O)CN(CCOC)C(=O)[C@@H](C)N(C)C(=O)[C@H](CC2=CSC=N2)NC(=O)[C@H](C)N(C)C1=O] (cyclo([Ala(4-thiazolyl)][dNMeA][Nme][Phe(4-F)][NMeA][Phe(4-Cl)][NMeF][dP][hSer](Me)[NMeA]))
[3]
  IC50: 100 to 150 nM
